From the supplement of paper PMC9151546
Repeats are few or missing, and single values can be far off.

Columns and labels:
CHO-K1 [1] = assay: hypodiploid nuclei frequency (% of nucleated events); higher = more hypodiploid events (aneugenic)
Protocol: (§1)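 Flow-cytometric in vitro micronucleus assay (Litron MicroFlow) in CHO-K1 cells in 96-well plates, 19 concentrations (4.5-200 µM, n=1 per concentration). Without S9, cells were exposed for 24 h and sampled at 48 h. With Aroclor 1254-induced rat liver S9, cells were exposed for 3-4 h and sampled at 27-28 h. Read-outs are %MN and %hypodiploid nuclei relative to nucleated events, and relative survival as the nuclei-to-bead ratio versus the 1% DMSO vehicle control (x100).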

CHO-K1 [2] = assay: relative survival (nuclei to bead ratio vs DMSO control) (% of vehicle control); higher = more surviving cells
Protocol: as §1

CHO-K1 [3] = assay: micronucleus frequency (% of nucleated events); higher = more micronuclei (genotoxic)
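Wherever hypodiploid nuclei frequency (% of nucleated events) is given: hypodiploid nuclei gated on a flow cytometer with 488 nm excitation after SYTOX Green staining, cultures at 37 °C, positive controls vinblastine without S9 and cyclophosphamide with S9.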
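Wherever micronucleus frequency (% of nucleated events) is given: cells lysed with nuclei stained by SYTOX Green, then micronucleus-gated events counted against nucleated events by flow cytometry with 488 nm excitation.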
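Wherever relative survival (nuclei to bead ratio vs DMSO control) is given: Lysed-cell nuclei stained with SYTOX Green and counted against counting beads by flow cytometry at 488 nm excitation, with vinblastine (no S9) and cyclophosphamide (plus S9) as positive controls.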

CN(Cc1cnc2nc(N)nc(N)c2n1)c1ccc(C(=O)N[C@@H](CCC(=O)O)C(=O)O)cc1 [Methotrexate]
Settings	hypodiploid nuclei frequency, CHO-K1 [1] [%]	micronucleus frequency, CHO-K1 [3] [%]	relative survival, CHO-K1 [2]
concentration: 4.5 (µM), S9 metabolic activation: with S9, exposure time: 3-4 hours	0.24	2.18	86.4
concentration: 4.5 (µM), S9 metabolic activation: without S9, exposure time: 24 hours	0.68	1.48	82.6
concentration: 5.63 (µM), S9 metabolic activation: with S9, exposure time: 3-4 hours	0.48	2.48	90
concentration: 5.63 (µM), S9 metabolic activation: without S9, exposure time: 24 hours	0.59	1.72	83.5
concentration: 7.04 (µM), S9 metabolic activation: with S9, exposure time: 3-4 hours	0.24	2.42	83.9
concentration: 7.04 (µM), S9 metabolic activation: without S9, exposure time: 24 hours	0.73	1.75	81.5
concentration: 8.8 (µM), S9 metabolic activation: with S9, exposure time: 3-4 hours	0.34	2.18	102
concentration: 8.8 (µM), S9 metabolic activation: without S9, exposure time: 24 hours	0.79	2.03	91.3
concentration: 11 (µM), S9 metabolic activation: with S9, exposure time: 3-4 hours	0.42	2.7	96.9
concentration: 11 (µM), S9 metabolic activation: without S9, exposure time: 24 hours	0.87	1.54	86.8
concentration: 13.7 (µM), S9 metabolic activation: with S9, exposure time: 3-4 hours	0.26	1.94	77.9
concentration: 13.7 (µM), S9 metabolic activation: without S9, exposure time: 24 hours	1.06	1.79	90.7
concentration: 17.2 (µM), S9 metabolic activation: with S9, exposure time: 3-4 hours	0.34	1.9	74.1
concentration: 17.2 (µM), S9 metabolic activation: without S9, exposure time: 24 hours	5.77	2.54	78.8
concentration: 21.5 (µM), S9 metabolic activation: with S9, exposure time: 3-4 hours	0.4	2.22	92.2
concentration: 21.5 (µM), S9 metabolic activation: without S9, exposure time: 24 hours	–	–	64.6
concentration: 26.8 (µM), S9 metabolic activation: with S9, exposure time: 3-4 hours	0.2	1.58	106
concentration: 26.8 (µM), S9 metabolic activation: without S9, exposure time: 24 hours	0.7	1.78	87.7
concentration: 33.6 (µM), S9 metabolic activation: with S9, exposure time: 3-4 hours	0.24	1.62	97.8
concentration: 33.6 (µM), S9 metabolic activation: without S9, exposure time: 24 hours	1.01	1.82	93.7
concentration: 41.9 (µM), S9 metabolic activation: with S9, exposure time: 3-4 hours	0.38	1.66	98.9
concentration: 41.9 (µM), S9 metabolic activation: without S9, exposure time: 24 hours	0.89	2.25	85.5
concentration: 52.4 (µM), S9 metabolic activation: with S9, exposure time: 3-4 hours	0.3	1.98	106
concentration: 52.4 (µM), S9 metabolic activation: without S9, exposure time: 24 hours	0.75	1.85	76.1
concentration: 65.5 (µM), S9 metabolic activation: with S9, exposure time: 3-4 hours	0.24	1.18	93.5
concentration: 65.5 (µM), S9 metabolic activation: without S9, exposure time: 24 hours	0.81	1.88	83.4
concentration: 81.9 (µM), S9 metabolic activation: with S9, exposure time: 3-4 hours	0.32	1.46	86.4
concentration: 81.9 (µM), S9 metabolic activation: without S9, exposure time: 24 hours	0.77	1.84	87.5
concentration: 102 (µM), S9 metabolic activation: with S9, exposure time: 3-4 hours	0.24	2.66	90.8
concentration: 102 (µM), S9 metabolic activation: without S9, exposure time: 24 hours	1.16	1.88	78.6
concentration: 128 (µM), S9 metabolic activation: with S9, exposure time: 3-4 hours	0.32	1.98	75.7
concentration: 128 (µM), S9 metabolic activation: without S9, exposure time: 24 hours	1.37	2.12	84.5
concentration: 160 (µM), S9 metabolic activation: with S9, exposure time: 3-4 hours	0.36	2.1	95.6
concentration: 160 (µM), S9 metabolic activation: without S9, exposure time: 24 hours	1.76	2.4	80.9
concentration: 200 (µM), S9 metabolic activation: with S9, exposure time: 3-4 hours	0.3	2.24	74.1
concentration: 200 (µM), S9 metabolic activation: without S9, exposure time: 24 hours	2.05	2.39	76.1

COC(=O)c1ccccc1O [Methyl salicylate]
Settings	hypodiploid nuclei frequency, CHO-K1 [1] [%]	micronucleus frequency, CHO-K1 [3] [%]	relative survival, CHO-K1 [2]
concentration: 4.5 (µM), S9 metabolic activation: with S9, exposure time: 3-4 hours	0.28	0.94	102
concentration: 4.5 (µM), S9 metabolic activation: without S9, exposure time: 24 hours	0.6	1.4	103
concentration: 5.63 (µM), S9 metabolic activation: with S9, exposure time: 3-4 hours	0.16	1.18	94.1
concentration: 5.63 (µM), S9 metabolic activation: without S9, exposure time: 24 hours	0.68	1.18	106
concentration: 7.04 (µM), S9 metabolic activation: with S9, exposure time: 3-4 hours	0.12	1.08	93.1
concentration: 7.04 (µM), S9 metabolic activation: without S9, exposure time: 24 hours	0.52	1.3	113
concentration: 8.8 (µM), S9 metabolic activation: with S9, exposure time: 3-4 hours	0.18	1.22	101
concentration: 8.8 (µM), S9 metabolic activation: without S9, exposure time: 24 hours	0.64	1.14	103
concentration: 11 (µM), S9 metabolic activation: with S9, exposure time: 3-4 hours	0.24	0.96	113
concentration: 11 (µM), S9 metabolic activation: without S9, exposure time: 24 hours	0.98	1.94	102
concentration: 13.7 (µM), S9 metabolic activation: with S9, exposure time: 3-4 hours	0.24	0.96	113
concentration: 13.7 (µM), S9 metabolic activation: without S9, exposure time: 24 hours	0.72	1.64	101
concentration: 17.2 (µM), S9 metabolic activation: with S9, exposure time: 3-4 hours	0.24	1.02	115
concentration: 17.2 (µM), S9 metabolic activation: without S9, exposure time: 24 hours	0.7	1.56	113
concentration: 21.5 (µM), S9 metabolic activation: with S9, exposure time: 3-4 hours	0.22	0.7	94.6
concentration: 21.5 (µM), S9 metabolic activation: without S9, exposure time: 24 hours	0.88	2.26	111
concentration: 26.8 (µM), S9 metabolic activation: with S9, exposure time: 3-4 hours	0.28	0.92	110
concentration: 26.8 (µM), S9 metabolic activation: without S9, exposure time: 24 hours	0.68	1.88	111
concentration: 33.6 (µM), S9 metabolic activation: with S9, exposure time: 3-4 hours	0.3	1.18	120
concentration: 33.6 (µM), S9 metabolic activation: without S9, exposure time: 24 hours	0.94	1.96	118
concentration: 41.9 (µM), S9 metabolic activation: with S9, exposure time: 3-4 hours	0.32	1.54	89.4
concentration: 41.9 (µM), S9 metabolic activation: without S9, exposure time: 24 hours	0.74	1.72	93.9
concentration: 52.4 (µM), S9 metabolic activation: with S9, exposure time: 3-4 hours	0.16	1.16	91.8
concentration: 52.4 (µM), S9 metabolic activation: without S9, exposure time: 24 hours	0.84	2.42	134
concentration: 65.5 (µM), S9 metabolic activation: with S9, exposure time: 3-4 hours	0.44	1.3	93.6
concentration: 65.5 (µM), S9 metabolic activation: without S9, exposure time: 24 hours	1.1	2.12	88
concentration: 81.9 (µM), S9 metabolic activation: with S9, exposure time: 3-4 hours	0.26	1.56	93.6
concentration: 81.9 (µM), S9 metabolic activation: without S9, exposure time: 24 hours	1.28	2.92	94.3
concentration: 102 (µM), S9 metabolic activation: with S9, exposure time: 3-4 hours	0.26	1.78	109
concentration: 102 (µM), S9 metabolic activation: without S9, exposure time: 24 hours	1.68	3.52	86.1
concentration: 128 (µM), S9 metabolic activation: with S9, exposure time: 3-4 hours	0.4	2.3	103
concentration: 128 (µM), S9 metabolic activation: without S9, exposure time: 24 hours	1.42	2.04	86.5
concentration: 160 (µM), S9 metabolic activation: with S9, exposure time: 3-4 hours	0.64	2.82	119
concentration: 160 (µM), S9 metabolic activation: without S9, exposure time: 24 hours	1.64	1.86	93.4
concentration: 200 (µM), S9 metabolic activation: with S9, exposure time: 3-4 hours	0.32	1.56	117
concentration: 200 (µM), S9 metabolic activation: without S9, exposure time: 24 hours	1.58	1.94	81.8

C[C@](N)(Cc1ccc(O)c(O)c1)C(=O)O [Methyldopa sesquihydrate]
Settings	hypodiploid nuclei frequency, CHO-K1 [1] [%]	micronucleus frequency, CHO-K1 [3] [%]	relative survival, CHO-K1 [2]
concentration: 4.5 (µM), S9 metabolic activation: with S9, exposure time: 3-4 hours	0.38	0.86	104
concentration: 4.5 (µM), S9 metabolic activation: without S9, exposure time: 24 hours	1.14	1.46	117
concentration: 5.63 (µM), S9 metabolic activation: with S9, exposure time: 3-4 hours	0.38	1.04	127
concentration: 5.63 (µM), S9 metabolic activation: without S9, exposure time: 24 hours	1.56	1.64	125
concentration: 7.04 (µM), S9 metabolic activation: with S9, exposure time: 3-4 hours	0.34	1.46	142
concentration: 7.04 (µM), S9 metabolic activation: without S9, exposure time: 24 hours	0.7	1.14	145
concentration: 8.8 (µM), S9 metabolic activation: with S9, exposure time: 3-4 hours	0.24	1.22	114
concentration: 8.8 (µM), S9 metabolic activation: without S9, exposure time: 24 hours	0.92	1.54	139
concentration: 11 (µM), S9 metabolic activation: with S9, exposure time: 3-4 hours	0.34	1.78	117
concentration: 11 (µM), S9 metabolic activation: without S9, exposure time: 24 hours	0.7	1.68	117
concentration: 13.7 (µM), S9 metabolic activation: with S9, exposure time: 3-4 hours	0.2	1.84	124
concentration: 13.7 (µM), S9 metabolic activation: without S9, exposure time: 24 hours	1.12	1.88	126
concentration: 17.2 (µM), S9 metabolic activation: with S9, exposure time: 3-4 hours	0.4	1.76	110
concentration: 17.2 (µM), S9 metabolic activation: without S9, exposure time: 24 hours	0.66	2.26	153
concentration: 21.5 (µM), S9 metabolic activation: with S9, exposure time: 3-4 hours	0.24	1.2	111
concentration: 21.5 (µM), S9 metabolic activation: without S9, exposure time: 24 hours	0.62	1.64	127
concentration: 26.8 (µM), S9 metabolic activation: with S9, exposure time: 3-4 hours	0.24	0.68	124
concentration: 26.8 (µM), S9 metabolic activation: without S9, exposure time: 24 hours	0.8	1.24	137
concentration: 33.6 (µM), S9 metabolic activation: with S9, exposure time: 3-4 hours	0.24	0.76	137
concentration: 33.6 (µM), S9 metabolic activation: without S9, exposure time: 24 hours	0.94	1.98	128
concentration: 41.9 (µM), S9 metabolic activation: with S9, exposure time: 3-4 hours	0.2	1.16	98.1
concentration: 41.9 (µM), S9 metabolic activation: without S9, exposure time: 24 hours	0.84	1.6	122
concentration: 52.4 (µM), S9 metabolic activation: with S9, exposure time: 3-4 hours	0.22	0.72	124
concentration: 52.4 (µM), S9 metabolic activation: without S9, exposure time: 24 hours	0.94	1.7	139
concentration: 65.5 (µM), S9 metabolic activation: with S9, exposure time: 3-4 hours	0.26	0.78	123
concentration: 65.5 (µM), S9 metabolic activation: without S9, exposure time: 24 hours	0.9	1.64	146
concentration: 81.9 (µM), S9 metabolic activation: with S9, exposure time: 3-4 hours	0.22	1.2	114
concentration: 81.9 (µM), S9 metabolic activation: without S9, exposure time: 24 hours	0.72	1.5	158
concentration: 102 (µM), S9 metabolic activation: with S9, exposure time: 3-4 hours	0.2	0.92	130
concentration: 102 (µM), S9 metabolic activation: without S9, exposure time: 24 hours	0.98	1.8	122
concentration: 128 (µM), S9 metabolic activation: with S9, exposure time: 3-4 hours	0.2	0.98	129
concentration: 128 (µM), S9 metabolic activation: without S9, exposure time: 24 hours	1.2	1.8	129
concentration: 160 (µM), S9 metabolic activation: with S9, exposure time: 3-4 hours	0.2	0.92	125
concentration: 160 (µM), S9 metabolic activation: without S9, exposure time: 24 hours	0.92	1.66	106
concentration: 200 (µM), S9 metabolic activation: with S9, exposure time: 3-4 hours	0.08	0.98	112
concentration: 200 (µM), S9 metabolic activation: without S9, exposure time: 24 hours	1.18	1.64	89.9
